For 16 compounds, cell count results are on record in the supplement of paper PMC4604168 (melanoma cell lines).

Molecules are shown by their SMILES. The list shows a part of the results. Many values rest on one well or one pass, so single values are uncertain.

What all share (assay): cell count relative to DMSO control; melanoma cells; higher = more viable cells
Conditions in all cases: library dose: standard library concentration; 72 h

The subject of test [1] is SkMel28.
Test [2] has as its system SkMel2.
Test [3] has as its system SkMel30.
The test system of test [4] is SkMel5.
The test system of test [5] is UACC257.
The subject of test [6] is UACC62.
Test [7] relates to WM115.
For test [8], the system named is WM1716.
Test [9] concerns WM3526.
Test [10] concerns WM1745.
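Also: cells treated in 1,536-well plates, then fixed and DAPI-stained, with nuclei counted from automated high-throughput microscope images.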

As to `NC1(c2ccc(-c3nc4ccn5c(=O)[nH]nc5c4cc3-c3ccccc3)cc2)CCC1` + CCc1ccc(CCOc2ccc(CC3SC(=O)NC3=O)cc2)nc1 [pioglitazone] (first compound 2 µM, partner dose 10 µM), the cell count in [1] was 41.3%; in test [2], 57.6%; in test [3] it was 86.5%; in test [4] it was 65.3%; in [5], 87.6%; in test [6] it was 70.5%. The cell count was found to be 58.9% in test [7], 76.1% in test [8] and 56% in [9].

On to `CCCS(=O)(=O)Nc1ccc(F)c(C(=O)c2c[nH]c3ncc(Cl)cc23)c1F` + COc1ccc(-c2ccc3c(N4CCOCC4)nc(N4C[C@@H](C)O[C@@H](C)C4)nc3n2)cc1CO [KU0063794] (first compound 0.4 µM, partner dose 0.1 µM), for which the cell count in [1] came out at 42.8%; in [2], 75.5%; in [3], 88%; in [4] it was 47.7%; in [5] it was 105%; in [6], 54%. Also, the cell count is 69.3% in [7], 77% in test [8] and 60.6% in test [9].

As to `CCCS(=O)(=O)Nc1ccc(F)c(C(=O)c2c[nH]c3ncc(Cl)cc23)c1F` + CCN(CC)CCCCNc1ncc2cc(-c3cc(OC)cc(OC)c3)c(NC(=O)NC(C)(C)C)nc2n1 [PD173074] (first compound 0.4 µM, partner dose 0.5 µM), the cell count is 56.5% in [1]; 110% in [2]; 104% in test [3]; 92.2% in test [4]; 106% in test [5]; 68.5% in [6]. The cell count in test [7] stood at 104%; in test [8], 121%; in [9], 70.7%.

Regarding `CS(=O)(=O)c1ccc(C(=O)Nc2ccc(Cl)c(-c3ccccn3)c2)c(Cl)c1` [vismodegib] + COc1cc(N2CCC(N3CCN(C)CC3)CC2)ccc1Nc1ncc(Cl)c(Nc2ccccc2S(=O)(=O)C(C)C)n1 [NVP-TAE684] (first compound 5 µM, partner dose 0.4 µM), the cell count in [1] was found to be 69.6%; in test [2], 65.2%; in test [3], 110%; in [4] it was 70.5%; in [5] it was 82.9%; in [6], 62.8%. Besides, the cell count in [7] was determined as 78.2%; in test [8], 86.2%; in test [9] it was 84.5%.

`CS(=O)(=O)c1ccc(C(=O)Nc2ccc(Cl)c(-c3ccccn3)c2)c(Cl)c1` [vismodegib] + O=C1NC(=O)/C(=C/c2ccc(-c3ccc(F)cc3O)o2)S1 [AS252424] (first compound 5 µM, partner dose 5 µM): the cell count in [1] is 101%; in [2] it was 88.7%; in test [3], 86.4%; in test [4], 78.5%; in [5] it was 102%; in [6] it was 68.5%. In addition, the cell count was 89.5% in test [7], 90.4% in test [8] and 79.3% in test [9].

As for `NC1(c2ccc(-c3nc4ccn5c(=O)[nH]nc5c4cc3-c3ccccc3)cc2)CCC1` + CC1(C)NC(=O)N(c2ccc([N+](=O)[O-])c(C(F)(F)F)c2)C1=O [nilutamide] (first compound 2 µM, partner dose 5 µM), the cell count in [1] amounted to 98.5%; in test [2], 69.7%; in test [3], 111%; in [4] it was 77.1%; in test [5] it was 90.7%; in [6], 67.7%. Also, the cell count amounted to 62.1% in test [7], 81% in test [8], 90.7% in test [10] and 81.2% in test [9].

As to `NC1(c2ccc(-c3nc4ccn5c(=O)[nH]nc5c4cc3-c3ccccc3)cc2)CCC1` + COc1cc(N2CCC(N3CCN(C)CC3)CC2)ccc1Nc1ncc(Cl)c(Nc2ccccc2S(=O)(=O)C(C)C)n1 [NVP-TAE684] (first compound 2 µM, partner dose 0.4 µM), the cell count in test [1] was 25.9%; in test [2], 52.1%; in [3], 81.3%; in [4], 43.6%; in test [5], 76.1%; in test [6], 49%. In addition, the cell count in test [7] turned out to be 35.4%; in [8], 75.2%; in test [9], 60.9%.

In the case of `C=C(c1ccc(C(=O)O)cc1)c1cc2c(cc1C)C(C)(C)CCC2(C)C` [Bexarotene] + O=C(O)C(=O)Nc1sc2c(c1C(=O)O)CCNC2 [TCS401] (first compound 10 µM, partner dose 8.33333 µM), the cell count in [1] was found to be 78.8%; in test [2], 96.1%; in [3] it was 137%; in test [4], 71.9%; in test [5], 76.7%; in [6] it was 78.1%. In addition, the cell count in test [7] was 93.1%; in [8] it was 93.4%; in test [9], 78.1%.

Regarding `NC1(c2ccc(-c3nc4ccn5c(=O)[nH]nc5c4cc3-c3ccccc3)cc2)CCC1` + CCCCCCCCCCCC1=C(O)C(=O)C=C(O)C1=O [Embelin] (first compound 2 µM, partner dose 6 µM), the cell count was determined as 47.6% in test [1]; 60.4% in test [2]; 91.4% in [3]; 78.8% in [4]; 82.1% in [5]; 81.5% in test [6]. Moreover, the cell count in test [7] is 77%; in [8], 39.4%; in [9], 55.6%.

Regarding `CN(c1ncccc1CNc1nc(Nc2ccc3c(c2)CC(=O)N3)ncc1C(F)(F)F)S(C)(=O)=O` + Oc1cc(-c2nc(-c3ccccc3)[nH]c2-c2ccncc2)ccc1Cl [L779450] (first compound 0.4 µM, partner dose 1 µM), the cell count in test [1] amounted to 35.7%; in test [2], 13.9%; in test [3], 89.6%; in [4] it was 71%; in test [5], 73.8%; in test [6], 46.6%. The figures for the cell count in test [7], in [8] and in [9] were 36.3%, 65.8% and 57.9%, respectively.

Regarding `CS(=O)(=O)c1ccc(C(=O)Nc2ccc(Cl)c(-c3ccccn3)c2)c(Cl)c1` [vismodegib] + Cc1cc([N+](=O)[O-])ccc1NS(=O)(=O)c1cc(Cl)ccc1Cl [FH535] (first compound 5 µM, partner dose 5 µM), the cell count in test [1] was 60.2%; in test [2], 91.1%; in test [3], 83.3%; in test [4], 80%; in test [5], 53.3%; in test [6] it was 71.3%. Further, the cell count in [7] stood at 89.8%; in test [8], 65.3%; in [9], 74.5%.

Take `CN(c1ncccc1CNc1nc(Nc2ccc3c(c2)CC(=O)N3)ncc1C(F)(F)F)S(C)(=O)=O` + N#Cc1c(O)c2c(-c3ccc(-c4ccccc4O)cc3)csc2[nH]c1=O [A769662] (first compound 0.4 µM, partner dose 10 µM): the cell count in [1] was found to be 87.9%; in [2], 109%; in test [3] it was 116%; in test [4], 102%; in test [5], 98.7%; in [6], 104%. Besides, the cell count in test [7] is 102%; in test [8], 103%; in test [9], 119%.

In the case of `CCCS(=O)(=O)Nc1ccc(F)c(C(=O)c2c[nH]c3ncc(Cl)cc23)c1F` + N#Cc1c(O)c2c(-c3ccc(-c4ccccc4O)cc3)csc2[nH]c1=O [A769662] (first compound 0.4 µM, partner dose 10 µM), the cell count in [1] is 64%; in [2], 106%; in [3] it was 124%; in [4] it was 100%; in test [5], 101%; in test [6], 68.7%. Moreover, the figures for the cell count in [7], in [8] and in test [9] were 99.1%, 77.8% and 67.3%, respectively.

For `CS(=O)(=O)c1ccc(C(=O)Nc2ccc(Cl)c(-c3ccccn3)c2)c(Cl)c1` [vismodegib] + O=c1cc(-c2cccc3c2Sc2ccccc2S3)oc(N2CCOCC2)c1 [KU55933] (first compound 5 µM, partner dose 5 µM), the cell count came to 130% in [1]; 84.6% in test [2]; 121% in test [3]; 105% in test [4]; 106% in [5]; 97.7% in test [6]. Moreover, the cell count in test [7] is 113%; in test [8], 90.7%; in [9], 110%.

Consider `CS(=O)(=O)c1ccc(C(=O)Nc2ccc(Cl)c(-c3ccccn3)c2)c(Cl)c1` [vismodegib] + CCCCCCCCCCCC1=C(O)C(=O)C=C(O)C1=O [Embelin] (first compound 5 µM, partner dose 6 µM), for which the cell count in test [1] was 96.1%; in test [2], 94.8%; in test [3], 118%; in test [4], 89.6%; in test [5] it was 97.7%; in [6] it was 95.7%. Moreover, the cell count in test [7] is 112%; in [8], 76.5%; in test [9] it was 94.1%.

`CS(=O)(=O)c1ccc(C(=O)Nc2ccc(Cl)c(-c3ccccn3)c2)c(Cl)c1` [vismodegib] + CCc1ccc(CCOc2ccc(CC3SC(=O)NC3=O)cc2)nc1 [pioglitazone] (first compound 5 µM, partner dose 10 µM): the cell count stood at 67.3% in test [1]; 89.8% in test [2]; 110% in [3]; 63.4% in [4]; 93.9% in [5]; 115% in [6]. The cell count in test [7] was 121%; in [8] it was 91.2%; in [9], 97.4%.
